From publication PMC6135549
No constants are given. Whether binding was seen depends on the method and setting. For part of these data: Binding seen in cells or lysates may run through a third protein. Some binding calls cover weakened binding; strength is not graded here. Values belong to the substance of their own block, whether it stands above or below them.

By UniProt entry, the sequences of proteins in these tests, tags left out. Where a name states a change or a piece, a line headed by the entry shows the natural chain unless it says otherwise. Chains listed by the source or under a name are the forms on record and can include a tag or linker. Residues count along the entry.
UniProt P35869, residues 11-848: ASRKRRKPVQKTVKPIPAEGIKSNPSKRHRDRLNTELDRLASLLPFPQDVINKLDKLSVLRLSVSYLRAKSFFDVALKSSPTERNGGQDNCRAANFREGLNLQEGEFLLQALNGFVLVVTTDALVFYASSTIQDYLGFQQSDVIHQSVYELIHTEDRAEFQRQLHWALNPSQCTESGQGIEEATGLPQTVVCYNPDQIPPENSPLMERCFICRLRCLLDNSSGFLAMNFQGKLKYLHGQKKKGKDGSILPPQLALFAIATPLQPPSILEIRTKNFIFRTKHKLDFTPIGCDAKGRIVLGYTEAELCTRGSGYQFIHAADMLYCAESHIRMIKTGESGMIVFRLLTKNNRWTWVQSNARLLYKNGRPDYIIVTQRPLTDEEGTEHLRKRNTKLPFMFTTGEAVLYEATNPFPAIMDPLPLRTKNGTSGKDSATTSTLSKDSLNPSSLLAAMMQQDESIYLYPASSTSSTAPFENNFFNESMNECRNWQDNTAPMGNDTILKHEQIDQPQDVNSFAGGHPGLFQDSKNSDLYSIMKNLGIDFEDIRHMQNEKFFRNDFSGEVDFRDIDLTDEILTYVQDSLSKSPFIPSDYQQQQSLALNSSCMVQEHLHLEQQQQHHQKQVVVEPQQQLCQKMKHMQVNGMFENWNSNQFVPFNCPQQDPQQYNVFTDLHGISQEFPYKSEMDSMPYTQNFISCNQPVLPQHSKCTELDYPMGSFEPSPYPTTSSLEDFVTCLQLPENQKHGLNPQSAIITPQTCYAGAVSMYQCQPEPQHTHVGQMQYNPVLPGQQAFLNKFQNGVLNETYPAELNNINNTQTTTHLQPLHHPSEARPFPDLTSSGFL
UniProt Q04759: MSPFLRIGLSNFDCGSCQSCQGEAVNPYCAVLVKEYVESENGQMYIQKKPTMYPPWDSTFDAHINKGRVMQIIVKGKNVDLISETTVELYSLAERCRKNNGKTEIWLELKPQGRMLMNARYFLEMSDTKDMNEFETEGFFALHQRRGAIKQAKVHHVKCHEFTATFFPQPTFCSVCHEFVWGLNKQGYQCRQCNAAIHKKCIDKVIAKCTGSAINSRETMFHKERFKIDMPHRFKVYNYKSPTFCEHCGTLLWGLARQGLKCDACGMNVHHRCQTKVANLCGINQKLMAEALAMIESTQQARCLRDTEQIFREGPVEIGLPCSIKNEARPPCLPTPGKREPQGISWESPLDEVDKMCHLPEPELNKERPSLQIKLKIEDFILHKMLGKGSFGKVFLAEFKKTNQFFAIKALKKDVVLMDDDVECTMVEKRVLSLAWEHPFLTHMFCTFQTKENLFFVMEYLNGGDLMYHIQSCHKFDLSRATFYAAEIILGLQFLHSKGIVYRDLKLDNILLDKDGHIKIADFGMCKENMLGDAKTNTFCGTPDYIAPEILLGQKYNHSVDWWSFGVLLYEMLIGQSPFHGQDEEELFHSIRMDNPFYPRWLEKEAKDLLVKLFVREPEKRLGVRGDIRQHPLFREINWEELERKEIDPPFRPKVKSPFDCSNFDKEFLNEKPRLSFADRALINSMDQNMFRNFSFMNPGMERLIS
UniProt Q8IVH8: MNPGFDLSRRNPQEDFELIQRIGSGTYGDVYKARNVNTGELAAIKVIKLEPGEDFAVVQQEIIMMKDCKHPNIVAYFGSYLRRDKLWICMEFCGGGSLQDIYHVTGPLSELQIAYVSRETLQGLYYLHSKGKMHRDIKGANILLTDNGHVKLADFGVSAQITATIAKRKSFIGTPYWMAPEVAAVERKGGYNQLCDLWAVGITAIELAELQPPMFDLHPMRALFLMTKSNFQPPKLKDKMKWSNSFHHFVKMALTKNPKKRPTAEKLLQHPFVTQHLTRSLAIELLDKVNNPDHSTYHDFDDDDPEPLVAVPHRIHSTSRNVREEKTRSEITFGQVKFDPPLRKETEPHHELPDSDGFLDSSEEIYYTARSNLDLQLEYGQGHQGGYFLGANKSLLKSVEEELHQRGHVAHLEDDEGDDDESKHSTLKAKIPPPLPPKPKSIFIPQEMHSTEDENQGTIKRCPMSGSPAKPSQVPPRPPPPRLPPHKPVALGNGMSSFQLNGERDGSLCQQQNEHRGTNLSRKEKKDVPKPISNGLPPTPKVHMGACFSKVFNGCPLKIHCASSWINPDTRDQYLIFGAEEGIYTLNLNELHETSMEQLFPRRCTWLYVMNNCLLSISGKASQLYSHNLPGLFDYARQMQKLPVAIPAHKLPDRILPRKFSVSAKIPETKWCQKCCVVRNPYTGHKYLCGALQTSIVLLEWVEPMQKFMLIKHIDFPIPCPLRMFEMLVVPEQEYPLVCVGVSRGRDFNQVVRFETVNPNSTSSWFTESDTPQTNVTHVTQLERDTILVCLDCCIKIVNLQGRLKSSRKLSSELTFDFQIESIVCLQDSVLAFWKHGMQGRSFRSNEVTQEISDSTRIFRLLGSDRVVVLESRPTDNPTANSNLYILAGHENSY
Flag-tagged RORγt-S489A mutant (cells cotransfected with IKKβ) (P51450-2, form named): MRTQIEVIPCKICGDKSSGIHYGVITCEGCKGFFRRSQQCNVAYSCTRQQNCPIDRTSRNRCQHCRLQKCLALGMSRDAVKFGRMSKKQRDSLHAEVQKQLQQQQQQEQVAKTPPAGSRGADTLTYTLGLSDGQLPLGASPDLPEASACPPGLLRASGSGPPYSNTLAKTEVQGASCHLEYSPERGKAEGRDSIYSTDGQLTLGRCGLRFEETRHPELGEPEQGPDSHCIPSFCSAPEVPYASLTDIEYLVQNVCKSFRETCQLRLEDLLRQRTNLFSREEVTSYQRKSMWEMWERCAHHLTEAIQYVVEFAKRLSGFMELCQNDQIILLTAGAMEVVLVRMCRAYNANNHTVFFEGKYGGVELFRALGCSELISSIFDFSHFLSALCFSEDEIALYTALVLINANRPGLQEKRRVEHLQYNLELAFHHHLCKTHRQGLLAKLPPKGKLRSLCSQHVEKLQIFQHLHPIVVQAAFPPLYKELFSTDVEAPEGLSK
Ser489-phosphorylated RORγt, endogenous in murine T cells (mouse (endogenous in murine T cells)) (P51450-2, form named): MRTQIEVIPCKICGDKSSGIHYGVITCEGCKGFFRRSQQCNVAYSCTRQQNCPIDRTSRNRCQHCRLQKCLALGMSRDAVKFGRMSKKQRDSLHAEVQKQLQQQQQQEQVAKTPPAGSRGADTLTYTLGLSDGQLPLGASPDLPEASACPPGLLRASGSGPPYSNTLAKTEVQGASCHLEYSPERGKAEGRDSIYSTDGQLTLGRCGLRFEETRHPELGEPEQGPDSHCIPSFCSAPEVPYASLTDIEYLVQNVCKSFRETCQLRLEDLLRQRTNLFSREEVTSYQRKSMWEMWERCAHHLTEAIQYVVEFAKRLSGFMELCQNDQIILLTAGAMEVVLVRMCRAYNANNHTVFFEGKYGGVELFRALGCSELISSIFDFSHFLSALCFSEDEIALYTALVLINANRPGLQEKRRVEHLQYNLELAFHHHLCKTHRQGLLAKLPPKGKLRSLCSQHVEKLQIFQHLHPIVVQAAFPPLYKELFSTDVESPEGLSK
UniProt Q02111: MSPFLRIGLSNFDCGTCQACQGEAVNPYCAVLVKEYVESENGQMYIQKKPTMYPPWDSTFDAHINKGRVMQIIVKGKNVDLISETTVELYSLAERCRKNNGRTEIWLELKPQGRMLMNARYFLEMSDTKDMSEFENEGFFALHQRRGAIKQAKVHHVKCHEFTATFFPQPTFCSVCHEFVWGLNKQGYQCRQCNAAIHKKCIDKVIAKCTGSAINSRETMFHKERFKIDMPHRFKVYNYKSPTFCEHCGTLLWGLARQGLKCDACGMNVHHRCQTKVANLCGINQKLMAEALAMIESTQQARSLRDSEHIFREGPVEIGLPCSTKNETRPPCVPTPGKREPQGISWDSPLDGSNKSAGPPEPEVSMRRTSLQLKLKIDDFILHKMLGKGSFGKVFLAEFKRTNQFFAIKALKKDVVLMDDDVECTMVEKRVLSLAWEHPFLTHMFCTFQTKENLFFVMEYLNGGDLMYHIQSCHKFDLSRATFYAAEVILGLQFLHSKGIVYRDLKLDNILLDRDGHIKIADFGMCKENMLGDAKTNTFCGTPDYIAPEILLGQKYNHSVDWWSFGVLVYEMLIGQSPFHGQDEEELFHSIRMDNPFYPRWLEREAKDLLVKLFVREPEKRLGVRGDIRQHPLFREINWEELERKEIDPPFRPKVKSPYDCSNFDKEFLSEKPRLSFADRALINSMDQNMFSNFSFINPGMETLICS
UniProt P30561, residues 10-848: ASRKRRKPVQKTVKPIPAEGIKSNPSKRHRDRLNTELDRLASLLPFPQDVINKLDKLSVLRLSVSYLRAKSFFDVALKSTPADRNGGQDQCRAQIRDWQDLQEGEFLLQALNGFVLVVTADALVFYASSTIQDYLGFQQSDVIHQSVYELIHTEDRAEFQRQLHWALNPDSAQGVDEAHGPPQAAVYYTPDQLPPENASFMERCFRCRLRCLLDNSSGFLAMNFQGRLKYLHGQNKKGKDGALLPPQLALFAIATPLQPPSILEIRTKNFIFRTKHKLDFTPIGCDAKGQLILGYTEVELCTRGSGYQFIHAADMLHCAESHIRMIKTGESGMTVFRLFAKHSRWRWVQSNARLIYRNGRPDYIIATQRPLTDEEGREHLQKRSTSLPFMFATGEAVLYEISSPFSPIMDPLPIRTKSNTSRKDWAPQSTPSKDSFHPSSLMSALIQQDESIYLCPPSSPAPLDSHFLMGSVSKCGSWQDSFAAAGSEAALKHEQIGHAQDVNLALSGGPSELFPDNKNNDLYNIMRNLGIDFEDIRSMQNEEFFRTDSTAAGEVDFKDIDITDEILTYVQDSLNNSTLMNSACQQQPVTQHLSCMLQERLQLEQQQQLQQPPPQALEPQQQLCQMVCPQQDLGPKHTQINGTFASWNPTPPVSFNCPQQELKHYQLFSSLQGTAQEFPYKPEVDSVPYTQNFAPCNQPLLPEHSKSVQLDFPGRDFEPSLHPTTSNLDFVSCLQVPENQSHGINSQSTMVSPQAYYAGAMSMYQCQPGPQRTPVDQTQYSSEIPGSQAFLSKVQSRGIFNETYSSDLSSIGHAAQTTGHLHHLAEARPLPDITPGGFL

Tests used:
[1] = target: HA-tagged AhR (UniProt P35869); assay: co-IP; lysates of HEK293T cells transfected with HA-AhR and Flag-RORγt (WT or S489A) plus GLK-CFP, PKCθ-Myc, IKKβ-CFP, IKKα-Myc or vector
[2] = target: purified recombinant GST-tagged AhR (UniProt P35869); assay: pull-down; GST pull-down: purified GST-AhR on glutathione Sepharose, 3 hours, with Flag-RORγt eluted with Flag peptides from HEK293T cells cotransfected with CFP-IKKβ or vector; washed with lysis buffer (125 mM NaCl, 0.2% NP-40) at 4°C; both purified
[3] = target: PKCθ of the ALPHA assay (UniProt Q04759); assay: AlphaScreen or HTRF; ALPHA technology (PerkinElmer) protein-protein interaction assay; signal when the pair is within 200 nm; EnVision 2104 reader
[4] = target: germinal center kinase-like kinase (GLK) of the ALPHA assay (UniProt Q8IVH8); assay: as above
[5] = target: retinoic-acid-receptor-related orphan nuclear receptor γt (RORγt), endogenous in murine T cells (mouse (endogenous in murine T cells)) (UniProt P51450); assay: condition: only T cells with IKKβ conditional knock-out (IKKβ^f/f;CD4-Cre), stimulated with anti-CD3; proximity ligation; in situ PLA for endogenous AhR and RORγt in primary T cells of IKKβ^f/f;CD4-Cre mice (IKKβ conditional knock-out) stimulated with anti-CD3 antibodies plus streptavidin
[6] = target: retinoic-acid-receptor-related orphan nuclear receptor γt (RORγt), endogenous in murine T cells (mouse (endogenous in murine T cells)) (UniProt P51450); assay: condition: only T cells with IKKβ conditional knock-out (Lck-GLK;IKKβ^f/f;CD4-Cre); proximity ligation; in situ PLA for endogenous AhR and RORγt in peripheral blood T cells of Lck-GLK;IKKβ^f/f;CD4-Cre mice (IKKβ conditional knock-out)
[7] = target: protein kinase Cθ (PKCθ), endogenous in murine T cells (mouse (endogenous in murine T cells)) (UniProt Q02111); assay: co-IP; endogenous proteins; lysates of murine primary splenic T cells (WT and Lck-GLK Tg without stimulation; or stimulated with anti-CD3 antibodies plus streptavidin, 3 μg each per ml); 0.5 to 1 mg lysate, 1 μg antibody, protein A/G Sepharose, 4°C; washed with lysis buffer (125 mM NaCl, 0.2% NP-40)
[8] = target: retinoic-acid-receptor-related orphan nuclear receptor γt (RORγt), endogenous in murine T cells (mouse (endogenous in murine T cells)) (UniProt P51450); assay: as above
[9] = target: protein kinase Cθ (PKCθ), endogenous in murine T cells (mouse (endogenous in murine T cells)) (UniProt Q02111); assay: proximity ligation; in situ PLA (Duolink In Situ Red) with antibodies to the endogenous proteins; murine peripheral blood or primary T cells of WT, Lck-GLK Tg and Lck-GLK;PKCθ-/- mice, or T cells stimulated with anti-CD3 antibodies plus streptavidin; signal at <40 nm
[10] = target: retinoic-acid-receptor-related orphan nuclear receptor γt (RORγt), endogenous in murine T cells (mouse (endogenous in murine T cells)) (UniProt P51450); assay: as above
[11] = target: Ser489-phosphorylated RORγt, endogenous in murine T cells (mouse (endogenous in murine T cells)) (UniProt P51450); assay: as above
[12] = target: purified recombinant GST-PKCθ (UniProt Q04759); assay: in vitro binding assay; purified PKCθ and purified AhR (HA-AhR eluted with HA peptide from transfected HEK293T cells); both purified
[13] = target: Myc-tagged PKCθ (UniProt Q04759); assay: proximity ligation; in situ PLA with probes corresponding to Myc and Flag tags in Myc-PKCθ- and Flag-AhR-overexpressing HEK293T cells
[14] = target: CFP-tagged PKCθ (UniProt Q04759); assay: FRET or BRET; FRET in live PKCθ/AhR-cotransfected Jurkat T cells; excitation 430 nm, emission 530 nm; EnVision 2104 reader

Substance: Flag-tagged RORγt from cells cotransfected with IKKβ (phosphorylated at Ser489) (from UniProt P51450-2 1-495)
binding [2]: binds | binding [1]: binds

Substance: AhR of the ALPHA assay (from UniProt P35869 11-848)
binding [3]: binds | binding [4]: no binding

Substance: HA-tagged AhR (from UniProt P35869 11-848)
binding [12]: binds

Substance: Flag-tagged AhR (from UniProt P35869 11-848)
binding [13]: binds

Substance: YFP-tagged AhR (from UniProt P35869 11-848)
binding [14]: binds

Second part, the substance after the results:

binding [1]: no binding
Substance: Flag-tagged RORγt-S489A mutant (cells cotransfected with IKKβ) (from UniProt P51450-2 1-495)

binding [5]: no binding | binding [6]: no binding | binding [7]: binds | binding [8]: binds | binding [9]: binds | binding [10]: binds | binding [11]: binds
Substance: aryl hydrocarbon receptor (AhR), endogenous in murine T cells (from UniProt P30561 10-848)
